Laboratory results taken from the supplement of paper PMC12217912.
The other results are listed elsewhere or left out. Sequences were assembled here from the parent chain. Inactive controls read about 0.05.

B1: TEV protease; numbered along this chain (parent)
chain: MGESLFKGPRDYNPISSSICHLTNESDGHTTSLYGIGFGPFIITNKHLFRRNNGTLVVQSLHGVFKVKDTTTLQQHLVDGRDMIIIRMPKDFPPFPQKLKFREPQREERICLVTTNFQTKSMSSMVSDTSCTFPSGDGIFWKHWIQTKDGQCGSPLVSTRDGFIVGIHSASNFTNTNNYFTSVPKNFMELLTNQEAQQWVSGWRLNADSVLWGGHKVFMVKPEEPFQPVKEATQL

Variants of: B1
Test: raw area under fraction-flipped curve 0-4 h after induction (AUC4h, not background-subtracted), DNA-recorder readout of cleavage of the substrate (dimensionless); higher = more cleavage of the substrate by the protease variant
Conditions: temperature: 34 °C; time window: 0-4 h after rhamnose induction
Description: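 In vivo DNA recorder in E. coli TOP10(DE3) ΔrhaA at 34 °C. Each TEVp single-site mutant (parent TEVp 0) is paired with a single-site variant of the 7-mer TEVs (canonical ENLYFQ|S). The substrate sits between flexible linkers in a Bxb1-sfGFP-TEVs-SsrA fusion, so cleavage stabilises Bxb1 and speeds flipping of a recombination array, read by NGS. The value is the raw area under the fraction-flipped curve over 0-4 h after rhamnose induction (AUC4h), with ≥20 reads per time point. It is not background-subtracted; inactive controls average about 0.047.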
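Note: Bxb1 expression induced with 0.2% (w/v) L-rhamnose at OD600 near 0.5, cultures sampled hourly, flipped fraction per protease–substrate barcode pair counted by paired-end Illumina sequencing.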

| Variant | area with substrate ENLYFQC | area with substrate ENLYFQD | area with substrate ENLYFQG | area with substrate ENLYFQH | area with substrate ENLYFQI | area with substrate ENLYFQK | area with substrate ENLYFQL | area with substrate ENLYFQM | area with substrate ENLYFQN | area with substrate ENLYFQR | area with substrate ENLYFQS | area with substrate ENLYFQT | area with substrate ENLYFQY | area with substrate ENLYFQP | area with substrate ENLYFQF | area with substrate ENLYFQV | area with substrate ENLYFQW | area with substrate ENLYFQE | area with substrate ENLYFQQ |
| --- | --- | --- | --- | --- | --- | --- | --- | --- | --- | --- | --- | --- | --- | --- | --- | --- | --- | --- | --- |
| V57D | 0.137 | 0.0892 | 0.0964 | 0.0834 | 0.0143 | 0.0652 | 0.052 | 0.103 | 0.0923 | 0.0593 | 0.103 | 0.059 | 0.0808 | – | – | – | – | – | – |
| V58E | 0.0507 | – | 0.0539 | – | – | – | – | 0.0461 | 0.0338 | – | 0.0458 | – | – | 0.0435 | – | – | – | – | – |
| L61S | 0.104 | – | – | – | 0.0547 | – | 0.0461 | – | – | 0.0665 | 0.0989 | 0.0655 | – | 0.0583 | 0.0716 | 0.0771 | 0.0665 | – | – |
| L61V | 0.123 | – | – | – | 0.0756 | 0.0662 | – | – | – | 0.0624 | 0.105 | 0.0642 | – | – | – | – | – | – | – |
| G63C | 0.0925 | 0.0735 | 0.0962 | 0.0557 | 0.0629 | 0.0458 | 0.0592 | 0.0736 | 0.0797 | 0.0548 | 0.0938 | 0.0594 | 0.0778 | 0.0446 | 0.0704 | 0.068 | 0.0558 | – | – |
| G63V | 0.0958 | – | 0.0892 | 0.0639 | 0.0573 | 0.0356 | – | 0.0856 | 0.0779 | 0.041 | 0.0875 | 0.0601 | 0.079 | – | – | – | – | 0.0547 | 0.069 |
| V67H | 0.105 | 0.0732 | 0.103 | – | 0.0508 | 0.0597 | 0.0552 | 0.0894 | 0.0819 | 0.0472 | 0.0965 | 0.0679 | – | 0.0606 | 0.0629 | 0.0504 | – | – | – |
| V67Q | 0.088 | 0.0785 | 0.0908 | – | 0.0566 | 0.0577 | – | – | 0.0678 | 0.0509 | 0.0825 | 0.0528 | 0.073 | – | – | – | 0.0599 | – | – |
| K68M | 0.0903 | – | 0.106 | – | 0.0528 | – | 0.0541 | 0.102 | 0.053 | 0.0656 | 0.0986 | – | 0.0772 | 0.0577 | 0.0906 | 0.0636 | 0.0567 | – | 0.0805 |
| K68N | 0.133 | – | 0.0934 | 0.0638 | 0.0557 | – | 0.0584 | 0.106 | 0.0862 | – | 0.0997 | 0.0703 | 0.0683 | – | – | – | 0.102 | – | – |
| T70Y | 0.0657 | – | 0.068 | 0.0538 | 0.0591 | 0.0521 | 0.0642 | 0.0706 | – | 0.0572 | 0.0746 | 0.0643 | – | 0.061 | 0.0652 | 0.0576 | – | 0.0452 | 0.0705 |
| T71I | 0.119 | – | – | – | 0.0676 | 0.063 | 0.0465 | 0.0794 | – | 0.067 | 0.091 | 0.0571 | – | – | – | – | 0.0659 | – | 0.0676 |
| T71M | 0.089 | 0.0352 | – | 0.084 | 0.0583 | – | – | 0.0839 | – | 0.0561 | 0.0933 | – | 0.0381 | – | – | 0.057 | 0.0861 | – | 0.0737 |
| L73F | 0.0738 | 0.0578 | – | – | – | 0.0588 | 0.0569 | 0.0668 | – | – | 0.069 | 0.0827 | – | – | – | – | 0.0575 | – | – |
| L77M | 0.0756 | – | – | – | 0.0564 | 0.0678 | 0.0724 | 0.064 | – | 0.0626 | 0.073 | 0.0755 | – | – | – | 0.0468 | 0.0572 | 0.0652 | – |
| G80Y | 0.141 | 0.0544 | 0.0947 | – | – | 0.0657 | – | 0.086 | – | – | 0.106 | – | 0.0732 | – | – | 0.0611 | 0.0856 | – | 0.0738 |
| D82E | 0.0679 | – | 0.135 | – | 0.0654 | 0.0929 | – | 0.0981 | 0.0431 | 0.0639 | 0.0755 | 0.0638 | – | – | – | 0.0701 | 0.0588 | – | – |

| Variant | area with substrate ENLYFQC | area with substrate ENLYFQD | area with substrate ENLYFQG | area with substrate ENLYFQH | area with substrate ENLYFQI | area with substrate ENLYFQK | area with substrate ENLYFQL | area with substrate ENLYFQM | area with substrate ENLYFQN | area with substrate ENLYFQR | area with substrate ENLYFQS | area with substrate ENLYFQT | area with substrate ENLYFQY | area with substrate ENLYFQP | area with substrate ENLYFQF | area with substrate ENLYFQV | area with substrate ENLYFQW | area with substrate ENLYFQE | area with substrate ENLYFQQ |
| --- | --- | --- | --- | --- | --- | --- | --- | --- | --- | --- | --- | --- | --- | --- | --- | --- | --- | --- | --- |
| M83P | 0.0555 | – | 0.0503 | 0.0557 | – | 0.0511 | 0.0684 | 0.0627 | 0.0534 | 0.0512 | 0.0531 | 0.0502 | 0.0473 | – | – | 0.02 | 0.0534 | – | – |
| I84Q | 0.0774 | 0.0541 | – | – | – | 0.0589 | 0.048 | 0.0624 | – | 0.0575 | 0.0741 | 0.0382 | – | 0.0565 | – | 0.0511 | 0.0528 | – | – |
| I85G | 0.0482 | – | 0.0646 | – | 0.0382 | 0.0611 | 0.0412 | – | 0.0503 | 0.0517 | 0.0527 | 0.0559 | – | 0.0513 | 0.0511 | – | 0.0513 | 0.0638 | – |
| R87K | 0.108 | 0.115 | – | – | 0.0531 | – | – | – | – | – | 0.114 | – | – | – | – | 0.0787 | – | – | – |
| R87P | 0.0594 | – | – | – | 0.0494 | 0.0555 | 0.0612 | – | 0.0426 | 0.051 | 0.0608 | – | – | – | – | – | – | – | – |
| R87W | 0.121 | – | 0.0872 | 0.0843 | 0.0638 | – | 0.0539 | 0.0831 | – | – | 0.0934 | – | – | 0.0645 | – | – | 0.0901 | – | – |
| K90C | 0.111 | – | – | – | 0.0755 | 0.0722 | 0.0612 | 0.0969 | 0.073 | 0.0561 | 0.101 | 0.0697 | 0.0715 | – | – | – | – | – | – |
| K90Y | 0.114 | – | – | 0.0791 | 0.0534 | 0.0766 | – | – | 0.0804 | 0.0637 | 0.1 | – | – | – | – | 0.0733 | 0.0361 | – | – |
| P93R | 0.106 | – | – | – | – | – | – | – | – | – | 0.102 | – | – | – | 0.0613 | – | – | – | – |
| P96G | 0.127 | – | – | 0.0786 | – | – | – | – | 0.0627 | – | 0.103 | – | 0.0859 | – | – | – | – | 0.0386 | – |
| K100A | 0.0652 | 0.0921 | – | 0.0564 | 0.0649 | 0.0707 | – | 0.0986 | – | 0.0553 | 0.114 | – | – | – | – | – | – | 0.0854 | – |
| P104Q | 0.0448 | 0.0457 | – | – | – | – | – | – | – | 0.0411 | 0.0491 | – | – | 0.0591 | – | – | 0.035 | – | – |
| R106L | 0.144 | – | – | 0.0955 | 0.0297 | 0.0645 | – | 0.0958 | – | 0.0557 | 0.115 | 0.0536 | – | 0.0587 | – | 0.0634 | 0.0984 | – | 0.104 |
| E108C | 0.0759 | – | 0.0672 | – | 0.048 | – | 0.104 | – | – | 0.0627 | 0.0736 | 0.0654 | – | – | – | 0.0407 | 0.0566 | – | – |
| E108L | 0.0627 | 0.0548 | – | – | 0.056 | 0.0559 | 0.0603 | – | – | 0.0479 | 0.0655 | 0.0529 | – | – | – | – | 0.0604 | – | 0.0522 |
| C111R | 0.103 | 0.076 | 0.128 | 0.0642 | – | 0.092 | – | – | 0.0651 | 0.0369 | 0.109 | – | – | – | – | – | – | – | – |
